According to doi:10.1101/2024.08.19.608523 (bioRxiv, 2024):

Target: the molecule itself
Test: SEC

B1: full-length GAS2 (GAS2-FL ([…])) (natural protein)
chain: not shown
- stoichiometry N: 2
